In a collection of fitness landscapes (doi:10.1126/science.1257360):
The other results are listed elsewhere or left out.

B1: PhoQ; a variant is named by its letters at X, in order, P23837 (parent)
chain: MKKLLRLFFPLSLRVRFLLATAAVVLVLSLAYGMVALIGYSVSFDKTTFRLLRGESNLFYTLAKWENNKLHVELPENIDKQSPTMTLIYDENGQLLWAQRDVPWLMKMIQPDWLKSNGFHEIEADVNDTSLLLSGDHSIQQQLQEVREDDDDAEMTHSVAVNVYPATSRMPKLTIVVVDTIPVELKSSYMVWSWFIYVLSANLLLVIPLLWVAAWWSLRPIEALAKEVRELEEHNRELLNPATTRELTSLVRNLNRLLKSERERYDKYRTTLTDLTHSLKTPLXXLQXXLRSLRSEKMSVSDAEPVMLEQISRISQQIGYYLHRASMRGGTLLSRELHPVAPLLDNLTSALNKVYQRKGVNISLDISPEISFVGEQNDFVEVMGNVLDNACKYCLEFVEISARQTDEHLYIVVEDDGPGIPLSKREVIFDRGQRVDTLRPGQGVGLAVAREITEQYEGKIVAGESMLGGARMEVIFGRQHSAPKDE

Variants of: B1
Test: enrichment ratio after two sorts for PhoP signalling (ratio (wild type AVST 3.29)); higher = more functional
Details: with PhoP (E. coli)

| Variant | enrichment ratio |
| --- | --- |
| MCVM | ≤ 0.25 |
| DLHR | ≤ 0.25 |
| ICKT | ≤ 0.25 |
| KIQL | ≤ 0.25 |
| NLVR | ≤ 0.25 |
| NSHK | ≤ 0.25 |
| RKRE | ≤ 0.25 |
| ASNF | 5.09 |
| VGHE | ≤ 0.25 |
| WMGK | ≤ 0.25 |
| KQYV | ≤ 0.25 |
| PCMA | ≤ 0.25 |
| WSPA | ≤ 0.25 |
| HDIT | ≤ 0.25 |
| KSFQ | ≤ 0.25 |
| AQQM | ≤ 0.25 |
| FDWF | ≤ 0.25 |
| ESCA | ≤ 0.25 |
| QMSA | ≤ 0.25 |
| HLQV | ≤ 0.25 |
| KKSC | ≤ 0.25 |
| IQNK | ≤ 0.25 |
| TQFH | ≤ 0.25 |
| GYHW | ≤ 0.25 |

| Variant | enrichment ratio |
| --- | --- |
| DMDE | ≤ 0.25 |
| PNQS | ≤ 0.25 |
| LNTW | ≤ 0.25 |
| IRSP | ≤ 0.25 |
| PSGS | ≤ 0.25 |
| APCS | ≤ 0.25 |
| EPPS | ≤ 0.25 |
| MCCM | 4.5 |
| PIED | ≤ 0.25 |
| PFNL | ≤ 0.25 |
| RGTA | ≤ 0.25 |
| LVYM | ≤ 0.25 |
| KAPY | ≤ 0.25 |
| DCFT | ≤ 0.25 |
| SGWT | ≤ 0.25 |
| TTIH | ≤ 0.25 |
| GHTG | ≤ 0.25 |
| VQAT | ≤ 0.25 |
| NGKE | ≤ 0.25 |
| RKGC | ≤ 0.25 |
| KVLN | ≤ 0.25 |
| DRTV | ≤ 0.25 |
| SWNE | ≤ 0.25 |
| QYVY | ≤ 0.25 |

| Variant | enrichment ratio |
| --- | --- |
| HGHV | ≤ 0.25 |
| RYKR | ≤ 0.25 |
| PIIP | ≤ 0.25 |
| PMPM | ≤ 0.25 |
| WLPT | ≤ 0.25 |
| WSMM | ≤ 0.25 |
| YVGS | ≤ 0.25 |
| RAMD | ≤ 0.25 |
| RRGM | ≤ 0.25 |
| LDPR | ≤ 0.25 |
| RRSM | ≤ 0.25 |
| YQAG | ≤ 0.25 |
| TMHI | 0.949 |
| TGQW | ≤ 0.25 |
| LLWC | ≤ 0.25 |
| VKWK | ≤ 0.25 |
| NLKP | ≤ 0.25 |
| HRER | ≤ 0.25 |
| YWPI | ≤ 0.25 |
| TNRN | ≤ 0.25 |
| TLEG | ≤ 0.25 |
| VARE | ≤ 0.25 |
| WFWF | ≤ 0.25 |
| VLNS | ≤ 0.25 |

| Variant | enrichment ratio |
| --- | --- |
| VLPP | ≤ 0.25 |
| MIAP | ≤ 0.25 |
| NADS | ≤ 0.25 |
| MEHQ | ≤ 0.25 |
| IYSM | ≤ 0.25 |
| YFFA | ≤ 0.25 |
| YITV | 0.482 |
| HKFG | ≤ 0.25 |
| LLQW | ≤ 0.25 |
| TTYP | ≤ 0.25 |
| PGHA | ≤ 0.25 |
| ANYD | ≤ 0.25 |
| RIRL | ≤ 0.25 |
| KCQV | ≤ 0.25 |
| SALM | 12.7 |
| WSTV | ≤ 0.25 |
| GMGG | ≤ 0.25 |
| IRGY | ≤ 0.25 |
| TEHH | ≤ 0.25 |
| TAKY | ≤ 0.25 |
| HGPY | ≤ 0.25 |
| HYSW | ≤ 0.25 |
| MIAF | 14 |
| HYAL | ≤ 0.25 |

| Variant | enrichment ratio |
| --- | --- |
| YTTG | ≤ 0.25 |
| HRQC | ≤ 0.25 |
| YYPN | ≤ 0.25 |
| RHYA | ≤ 0.25 |
| LMYG | ≤ 0.25 |
| VPCW | 1.13 |
| CHFP | ≤ 0.25 |
| QAVN | ≤ 0.25 |
| WDVF | ≤ 0.25 |
| NGVR | ≤ 0.25 |
| HNVC | ≤ 0.25 |
| MYHK | ≤ 0.25 |
| ERED | ≤ 0.25 |
| KNDR | ≤ 0.25 |
| MASC | ≤ 0.25 |
| KVRS | ≤ 0.25 |
| TCSM | 18.9 |
| NAVY | ≤ 0.25 |
| YSFP | ≤ 0.25 |
| SSTK | ≤ 0.25 |
| TTYC | ≤ 0.25 |
| LDHY | ≤ 0.25 |
| WLYW | ≤ 0.25 |
| IYIA | ≤ 0.25 |

| Variant | enrichment ratio |
| --- | --- |
| FWEW | ≤ 0.25 |
| GAHG | ≤ 0.25 |
| IRCT | ≤ 0.25 |
| RMNP | ≤ 0.25 |
| PDLN | ≤ 0.25 |
| FGGV | ≤ 0.25 |
| MIFT | ≤ 0.25 |
| DSLL | ≤ 0.25 |
| TYNV | ≤ 0.25 |
| VLMK | ≤ 0.25 |
| MEDF | ≤ 0.25 |
| LDSS | ≤ 0.25 |
| MNGT | 6.87 |
| HGSS | ≤ 0.25 |
| QMIW | ≤ 0.25 |
| YYYV | ≤ 0.25 |
| WTSK | ≤ 0.25 |
| YQWY | ≤ 0.25 |
| TCFF | ≤ 0.25 |
| SHHH | ≤ 0.25 |
| MIRP | ≤ 0.25 |
| SFYN | ≤ 0.25 |
| LTDS | ≤ 0.25 |
| PCTV | ≤ 0.25 |

| Variant | enrichment ratio |
| --- | --- |
| SMYL | ≤ 0.25 |
| YDDD | ≤ 0.25 |
| HTLV | ≤ 0.25 |
| LCMP | ≤ 0.25 |
| LSTE | ≤ 0.25 |
| RIAC | ≤ 0.25 |
| LWDA | ≤ 0.25 |
| YYDA | ≤ 0.25 |
| VRDL | ≤ 0.25 |
| SNFI | ≤ 0.25 |
| MADE | ≤ 0.25 |
| FICF | 5.34 |
| PFAE | ≤ 0.25 |
| AKNS | ≤ 0.25 |
| TLQD | ≤ 0.25 |
| STCK | 12.3 |
| TSVN | 5.59 |
| DCNI | ≤ 0.25 |
| LKVA | ≤ 0.25 |
| QNLH | ≤ 0.25 |
| LQWN | ≤ 0.25 |
| EVKF | ≤ 0.25 |
| VPPY | ≤ 0.25 |
| RYIE | ≤ 0.25 |

| Variant | enrichment ratio |
| --- | --- |
| TMYY | ≤ 0.25 |
| WVPG | ≤ 0.25 |
| MWCY | ≤ 0.25 |
| LRCH | ≤ 0.25 |
| GEYD | ≤ 0.25 |
| RCHS | ≤ 0.25 |
| EYDH | ≤ 0.25 |
| WIFH | ≤ 0.25 |
| GPFN | ≤ 0.25 |
| LKGL | ≤ 0.25 |
| ECDC | ≤ 0.25 |
| MFEQ | ≤ 0.25 |
| TCFI | ≤ 0.25 |
| GVAH | 0.601 |
| IIGV | ≤ 0.25 |
| FHFP | ≤ 0.25 |
| MKLH | ≤ 0.25 |
| WRSH | ≤ 0.25 |
| VNTE | ≤ 0.25 |
| FCTN | ≤ 0.25 |
| GETY | 11.2 |
| TWTF | ≤ 0.25 |
| WVGK | ≤ 0.25 |
| VSCG | ≤ 0.25 |

| Variant | enrichment ratio |
| --- | --- |
| KQIS | ≤ 0.25 |
| WTTS | ≤ 0.25 |
| AEME | 29.5 |
| WGVL | ≤ 0.25 |
| GCVL | 0.463 |
| FKNN | ≤ 0.25 |
| VRYY | ≤ 0.25 |
| YLQR | ≤ 0.25 |
| KNFQ | ≤ 0.25 |
| GGPI | ≤ 0.25 |
| LALD | ≤ 0.25 |
| AIWY | ≤ 0.25 |
| VCLI | 5.48 |
| DTKD | ≤ 0.25 |
| NHEP | ≤ 0.25 |
| VGAF | ≤ 0.25 |
| LFQS | ≤ 0.25 |
| EGQS | ≤ 0.25 |
| FSIH | ≤ 0.25 |
| TSIK | ≤ 0.25 |
| EKMV | ≤ 0.25 |
| AYCL | ≤ 0.25 |
| YAKW | ≤ 0.25 |
| KVAI | ≤ 0.25 |

| Variant | enrichment ratio |
| --- | --- |
| WCKW | ≤ 0.25 |
| TALH | 6.21 |
| PWWV | ≤ 0.25 |
| DIIL | ≤ 0.25 |
| KYHS | ≤ 0.25 |
| RRFI | ≤ 0.25 |
| GIII | 9.25 |
| WEIW | ≤ 0.25 |
| GTHK | ≤ 0.25 |
| VTTT | ≤ 0.25 |
| VWLA | ≤ 0.25 |
| WIGD | ≤ 0.25 |
| RFHH | ≤ 0.25 |
| DFGC | ≤ 0.25 |
| AHEP | ≤ 0.25 |
| MAQI | ≤ 0.25 |
| LIAG | ≤ 0.25 |
| MPHG | ≤ 0.25 |
| PSHW | ≤ 0.25 |
| RKST | ≤ 0.25 |
| MTML | 4.85 |
| GTGC | ≤ 0.25 |
| SDDQ | ≤ 0.25 |
| KNFP | ≤ 0.25 |

| Variant | enrichment ratio |
| --- | --- |
| PKDE | ≤ 0.25 |
| ENAH | ≤ 0.25 |
| VCQP | ≤ 0.25 |
| QRWR | ≤ 0.25 |
| GKDI | ≤ 0.25 |
| SICR | 9 |
| FPQQ | ≤ 0.25 |
| TISS | 11.9 |
| LRGN | ≤ 0.25 |
| NHAC | ≤ 0.25 |
| STCC | 13.7 |
| LDHP | ≤ 0.25 |
| PVRF | ≤ 0.25 |
| FLHK | ≤ 0.25 |
| VSRF | ≤ 0.25 |
| MCLW | ≤ 0.25 |
| HFHY | ≤ 0.25 |
| SVKR | ≤ 0.25 |
| YFHR | ≤ 0.25 |
| TWTV | ≤ 0.25 |
| LAYA | ≤ 0.25 |
| HWYW | ≤ 0.25 |
| GFWR | ≤ 0.25 |
| LKSY | ≤ 0.25 |

| Variant | enrichment ratio |
| --- | --- |
| GLYG | ≤ 0.25 |
| NDIM | ≤ 0.25 |
| QMWV | ≤ 0.25 |
| GYRL | ≤ 0.25 |
| QFDH | ≤ 0.25 |
| WSMC | ≤ 0.25 |
| IHNN | ≤ 0.25 |
| HQES | ≤ 0.25 |
| ATVQ | 13.9 |
| AEML | 14.4 |
| QENT | ≤ 0.25 |
| GPPL | ≤ 0.25 |
| GINH | ≤ 0.25 |
| GGAT | ≤ 0.25 |
| VEQP | ≤ 0.25 |
| HGEG | ≤ 0.25 |
| DVST | ≤ 0.25 |
| FQKS | ≤ 0.25 |
| AEPN | ≤ 0.25 |
| TTMG | 8.18 |
| ETWS | ≤ 0.25 |
| YAGV | ≤ 0.25 |
| HRPF | 0.462 |
| VCNH | ≤ 0.25 |

| Variant | enrichment ratio |
| --- | --- |
| CRFS | ≤ 0.25 |
| QRWP | ≤ 0.25 |
| YDAV | ≤ 0.25 |
| GEMF | ≤ 0.25 |
| RATG | ≤ 0.25 |
| IHGF | ≤ 0.25 |
| HSVQ | ≤ 0.25 |
| EISH | ≤ 0.25 |
| WEFN | ≤ 0.25 |
| NDAS | ≤ 0.25 |
| MFVN | ≤ 0.25 |
| FMCL | 4.06 |
| WANL | ≤ 0.25 |
| LFVN | ≤ 0.25 |
| TCQQ | 11.5 |
| KTFW | ≤ 0.25 |
| MFWQ | ≤ 0.25 |
| YVRV | ≤ 0.25 |
